First the molecules themselves.
B1: chr2:48962156:48962732:-|three_prime_utr|ENSG00000170820|control|control|control (ssRNA)
RNA: GGGAGUUCUACAGUCCGACGAUCUAUUCCUGGCAUACCUUUAAGGUAAAUUGGUCAGGAACUAUUAAUUCCAUGUGAUACAUUAGGAAGCUGAAUUAUUAGUAACAACAAUAAUAAUUAAAGAAUGCAAUACUGUAUUACAUACAACAGAGGAUUGAGCAUCA
B2: chr7:107760707:107760808:+|3pUTR|ENSG00000105879|unk|total|mutant (ssRNA)
RNA: GGGAGUUCUACAGUCCGACGAUCAAACAUGAAAUAUGCCGUAUGCAGAUAUCAUUUAUCCGACCGUUUGCCGUGUAUACAUUCCGAACAUACUUCUUUUGACAAAGGGUGAUCUGAUUGCUAAUUUACCAUUUUAUUCUGUCACAACAGAGGAUUGAGCAUCA
B3: chr11:10797513:10797714:-|3pUTR|ENSG00000110321|msi1_unk|FALSE|overlapping (ssRNA)
RNA: GGGAGUUCUACAGUCCGACGAUCUUCUGCAUAAGGUUUUUUUGUAGUGUAAUGUCUUAAUCAUAGUCUACCAUCAAAUAUUUUAGGAGUAUCUUUAAUGUUUAGAUAGUAUAUUAGCAGCAUGCAAUAAUUACAUCAUAAGUUCAACAGAGGAUUGAGCAUCA
B4: ENSG00000107863:be:win_3701|CDS|ENSG00000107863|bound_else_gene|NA|bound_elsewhere_windowed (ssRNA)
RNA: GGGAGUUCUACAGUCCGACGAUCUCUUCACAAAUGAUAAAUAUGCUGAUUUUAUUGAAGCCAAUCGUAAAGAAGAUCCUCUAGAUCGUCUGAAAACAUUAAAAAGACUAAUUCACGAUUUGCCUGAACAUCAUUAUGAAACACCAACAGAGGAUUGAGCAUCA
B5: chr12:32755127:32755228:-|CDS|ENSG00000139131|unk|total|mutant (ssRNA)
RNA: GGGAGUUCUACAGUCCGACGAUCCUUCUAUUACCUCUUCCAGCGUUAUGGAUGCAGGGUCCAGCUGGGCGGAUCUGAUCAACCCGGCAACAUCAUGUCCGGAUAUGAGUUCAUCAACAAGUAAGUGCCUUUAAACCUUGGGGACAACAGAGGAUUGAGCAUCA
B6: chr7:32869000:32869101:-|3pUTR|ENSG00000170852|msi1|total|mutant (ssRNA)
RNA: GGGAGUUCUACAGUCCGACGAUCAAUUGAGAAACUUUAUGUGUAAUCAUGAGAGUAUAAGAAUCUGGAUUAUCUAACAUUGUCCGCCCUGUGUAUGUACAGUUCAAAAAGUUCAUUUAUAAAAGCCGUUUCCUGUUCCCCGUGCAACAGAGGAUUGAGCAUCA
B7: chr5:72198766:72198867:+|CDS|ENSG00000131711|msi1_unk|total|mutant (ssRNA)
RNA: GGGAGUUCUACAGUCCGACGAUCUUCUACCUCUGCAGUCAAAGAGAAAACAGCAACUUGCCACAGUUCCUCUUCUCCACCAACCGAUGCAGCAUCCGCAGAGCCCUAUGGCUUCCGUGCCUCAGUGUUAUUCGAUACAAUGCACAACAGAGGAUUGAGCAUCA
B8: chr22:40825413:40825514:-|3pUTR|ENSG00000100380|msi1|total|mutant (ssRNA)
RNA: GGGAGUUCUACAGUCCGACGAUCGGUAAUACCCACAACAACUGCCGUUUCUUACUUGGCCAAGAGAAUGCUUAUUUAAGUGUCCGACUUCCAUUCUGGCAAAAUCUUGCCUUAUCAGAAGACAUUGGAAAGAGGGAUUCCCUUCAACAGAGGAUUGAGCAUCA
B9: chr22:29555535:29555644:-|3pUTR|ENSG00000184117|unk|total|mutant (ssRNA)
RNA: GGGAGUUCUACAGUCCGACGAUCUUCCUCAUCUCAAGGCCACCAGUCCCCAGUUAUCACCCUUGGAAAUCCUCUGUUCCGCUCCGUUGCACAAAAGGCCGUAUGUCCAGUGGCCCGAGGUGGGGUGGGAAGAGAGGAGGCCAGCAACAGAGGAUUGAGCAUCA
B10: chr15:44562695:44563301:-|three_prime_utr|ENSG00000104133|control|control|control (ssRNA)
RNA: GGGAGUUCUACAGUCCGACGAUCUGAAAUUGUAAAUGUGCUUCUGAAGGACCCUCAGACAGGUUGCUGUCUAAAGGACAUGCUAGCAGGUUAGAUGAUUUCAUAGGUGUCUGUUUUCUUGUACUGUUAGCAGAUUCUGACAGACAACAGAGGAUUGAGCAUCA
B11: ENSG00000107863:be:win_351|CDS|ENSG00000107863|bound_else_gene|NA|bound_elsewhere_windowed (ssRNA)
RNA: GGGAGUUCUACAGUCCGACGAUCAUUAUGUACAGGUGACCGAAUUAUAAAAGUCAAUGGAGAAAGUGUUAUUGGCAAAACCUAUUCCCAAGUAAUUGCUUUAAUUCAAAACAGUGAUACAACAUUGGAACUUAGUGUUAUGCCCAACAGAGGAUUGAGCAUCA
B12: chr1:161190761:161190881:-|3pUTR|ENSG00000158859|msi1|total|mutant (ssRNA)
RNA: GGGAGUUCUACAGUCCGACGAUCUGCGGGUCACAGGAGGGAGGGGGAAGGCAGGGAGGGCCUGGGCCCCAGUUGUAUUUAUUCCGUAUUUAUUCACUUUUAUUCCGCACCAGGGAAGGGGACAAGGACCCGGGUCCUGGGGAACAACAGAGGAUUGAGCAUCA
B13: chr10:15076986:15077088:-|3pUTR|ENSG00000176244|unk|FALSE|unique (ssRNA)
RNA: GGGAGUUCUACAGUCCGACGAUCUUUUCCUUUAAGAAGAUACCCAGUAGUGGGAUUGCUGGGUAGAAUGGUAGUUCUAUUUUUAGUUCCAUGAGAAAUUUCCGUGCUGUUUUUCAUAGAGGUUGUACUAAUUUACAUUCCCACCAACAGAGGAUUGAGCAUCA
B14: chr3:121431430:121432303:-|three_prime_utr|ENSG00000051341|control|control|control (ssRNA)
RNA: GGGAGUUCUACAGUCCGACGAUCUGGAAAGAACAGAGAUUACCCUUUCACCUACCUCAGCAAAACAAACUUUCAAGUCUUGAUAGACUUAGCCUAGUAAUUUUAUAGUGAGAGUUUCAAACUAUAUAUCAGUGUCUAUAGCAUCAACAGAGGAUUGAGCAUCA
B15: chr6:142752714:142752806:-|3pUTR|ENSG00000010818|msi1_unk|FALSE|overlapping (ssRNA)
RNA: GGGAGUUCUACAGUCCGACGAUCUUUUCUUUACUUUGCUUAUAUUCUUAUAAGCAUUUUUUAGCAGUAAUUUGUACAUAUUUUAGAAUUUGUGUAUCUGCUUUGUAAUAAAUGUAAUUUCUUUCCUUUUUUGGACACUUGGAUCAACAGAGGAUUGAGCAUCA
B16: chr1:165890246:165890361:+|CDS|ENSG00000143179|unk|FALSE|unique (ssRNA)
RNA: GGGAGUUCUACAGUCCGACGAUCCUCCUGGGGCAGAAUGAGGUGGACUAUCGCCAGAAGCAGGUGGUCAUCCUGAGCCAGGAUAGCUUCUACCGUGUCCUUACCUCGGAGCAGAAGGCCAAAGCCCUGAAGGGCCAGUUCAACCAACAGAGGAUUGAGCAUCA
B17: ENSG00000070961:be:win_3901|3pUTR|ENSG00000070961|bound_else_gene|NA|bound_elsewhere_windowed (ssRNA)
RNA: GGGAGUUCUACAGUCCGACGAUCAAGUGACCUGUGGAUCAUCAGUAGUACCCAAGCAUGGUCCUGAACAGUGUAUUAGCAGAGCUUUAGUUUAUCUCAGUCCUGGAUGGGAGAGAGAGGGAGGAGUAAAACUGGGCAAGACAACAACAGAGGAUUGAGCAUCA
B18: chr17:69546800:69546959:+|3pUTR|ENSG00000108984|unk|FALSE|unique (ssRNA)
RNA: GGGAGUUCUACAGUCCGACGAUCUCAACUUCAUAGGACUUUUUUUUUUUUUAACUUUUCAAAUGGAAGGUGCAGUUUUCAAUUAGGCCUCUGAAAAUUUACAUAGUCAGAUGGAAAAAUGCCAGAGUAAAAUCUAGGAAGAAGCAACAGAGGAUUGAGCAUCA
B19: chr19:45844017:45844118:-|CDS|ENSG00000125755|msi1|total|mutant (ssRNA)
RNA: GGGAGUUCUACAGUCCGACGAUCGCCCGCCAGAGACCCAUGUUCAUGUCUGAGGUGAUCCAGGCCUAUGAAACUCUGCAUGGCCGGUCAUUGUCCUCCCCCCUCCCCCUGCCUUCUCUUCACUGGCCAGUCUGCUCUUUCUUUCAACAGAGGAUUGAGCAUCA
B20: chr10:126015758:126015859:-|3pUTR|ENSG00000148848|msi1|FALSE|unique (ssRNA)
RNA: GGGAGUUCUACAGUCCGACGAUCAAAUACUCAGAUAAGGUAAAAUGCCAUGAUGCCUCUGUCUUCUGGACUGGUUUUCACAUUAGAAGACAAUUGACAACAGUUACAUAAUUCACUCUGAGUGUUUUAUGAGAAAGCCUUCUUCAACAGAGGAUUGAGCAUCA
B21: chr11:73394502:73394603:+|CDS|ENSG00000054967|msi1|FALSE|unique (ssRNA)
RNA: GGGAGUUCUACAGUCCGACGAUCCACCAUCUCCACACCGUGCAGGGCCUGGCCUCGCUCUCUGGCCCCUGCUGCUCCCGCUGUAGCCAGAAGAAGUGGCCCGAGGUGCUGCUGUCCCCUGAGGCUGUAGCCGCCACUACUCCUCAACAGAGGAUUGAGCAUCA
B22: chr2:128193554:128193655:+|3pUTR|ENSG00000136731|msi1|total|mutant (ssRNA)
RNA: GGGAGUUCUACAGUCCGACGAUCCCUUGUCAAGGCUCUGCCUGAAUGAGUUUUCAUCUGAUUGUGGGGACCAAGUCCCUGAGCCGAGGGCCAAGAGCCCGGGACAGGGGGAAGAGACUGGCCCAGGUGGCCGGGAGGAAAGAACAACAGAGGAUUGAGCAUCA

This is one part of the list.

In this test the target is T1, UNK ZnF1-6 (called full-length) (human, UniProt Q9C0B0 30-357).
T1 sequence: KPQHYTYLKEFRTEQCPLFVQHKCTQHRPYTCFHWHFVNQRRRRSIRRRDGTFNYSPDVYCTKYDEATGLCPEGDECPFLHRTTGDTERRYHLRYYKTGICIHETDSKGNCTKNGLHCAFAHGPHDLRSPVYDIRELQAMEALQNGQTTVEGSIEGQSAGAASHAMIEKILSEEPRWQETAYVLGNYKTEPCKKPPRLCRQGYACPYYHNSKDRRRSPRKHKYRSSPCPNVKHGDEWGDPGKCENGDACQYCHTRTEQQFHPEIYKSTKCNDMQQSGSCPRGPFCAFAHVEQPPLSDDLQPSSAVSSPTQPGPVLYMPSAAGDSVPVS
As to the kind of experiment: nsRBNS (natural sequence RNA bind-n-seq); RBNS binding buffer (assumed for nsRBNS): 25 mM Tris pH 7.5, 150 mM KCl, 3 mM MgCl2, 0.01% Triton X-100, 500 ug/ml BSA, 20 U/ml SUPERase-In, 4 C; UNK is unkempt and MSI1 is Musashi-1; names of the RNAs are library labels; protein concentration not given here; high values mean tight binding.
Consider B1, for which the binding signal was 0.574 enrichment R.

B2: the binding signal came out at 0.346 enrichment R.

Turning to B3, the binding signal is 1.96 enrichment R.

B4 displayed a binding signal of 0.382 enrichment R.

B5 had a binding signal of 0.489 enrichment R.

In turn, B6 had a binding signal of 0.396 enrichment R.

The molecule B7 registered a binding signal of 0.457 enrichment R.

The molecule B8 displayed a binding signal of 0.282 enrichment R.

As for B9, the binding signal turned out to be 0.742 enrichment R.

Take B10: the binding signal was determined as 0.537 enrichment R.

On to B11, for which the binding signal came out at 0.424 enrichment R.

On to B12, for which the binding signal amounted to 2.05 enrichment R.

Turning to B13, the binding signal amounted to 2.35 enrichment R.

B14 registered a binding signal of 8.5 enrichment R.

As for B15, the binding signal stood at 2.11 enrichment R.

B16: the binding signal was 0.748 enrichment R.

Take B17: the binding signal came to 1.72 enrichment R.

Regarding B18, the binding signal is 6 enrichment R.

Take B19: the binding signal stood at 0.997 enrichment R.

The molecule B20 gave a binding signal of 0.315 enrichment R.

B21: the binding signal came out at 0.839 enrichment R.

The molecule B22 returned a binding signal of 0.788 enrichment R.

The values are drawn from paper PMC12136788.
